# Publication PMC1874614 (Nucleic Acids Research, 2007)
# B1: human TRAPP subunit Mum2, His-tagged (natural protein)
# chain: not shown
# Target: the molecule itself
protein,measurement,value
B1,stoichiometry N,2
